Data as given in PMC4336329 (PLoS ONE, 2015).
The campaign covered roughly 310,000 compounds. About 14,000 (4.5%) showed an effect of 50% or more. Effects have a minus sign here. Some of the results follow.

Molecular target: human ether-à-go-go-related gene (hERG) potassium channel (human, UniProt Q12809)
Test: primary screen, population patch clamp on CHO cells stably expressing hERG
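Also: peak tail current of the secondary pulse compared with the same well before compound.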

Chain of human ether-à-go-go-related gene (hERG) potassium channel (Q12809 whole entry, looked up): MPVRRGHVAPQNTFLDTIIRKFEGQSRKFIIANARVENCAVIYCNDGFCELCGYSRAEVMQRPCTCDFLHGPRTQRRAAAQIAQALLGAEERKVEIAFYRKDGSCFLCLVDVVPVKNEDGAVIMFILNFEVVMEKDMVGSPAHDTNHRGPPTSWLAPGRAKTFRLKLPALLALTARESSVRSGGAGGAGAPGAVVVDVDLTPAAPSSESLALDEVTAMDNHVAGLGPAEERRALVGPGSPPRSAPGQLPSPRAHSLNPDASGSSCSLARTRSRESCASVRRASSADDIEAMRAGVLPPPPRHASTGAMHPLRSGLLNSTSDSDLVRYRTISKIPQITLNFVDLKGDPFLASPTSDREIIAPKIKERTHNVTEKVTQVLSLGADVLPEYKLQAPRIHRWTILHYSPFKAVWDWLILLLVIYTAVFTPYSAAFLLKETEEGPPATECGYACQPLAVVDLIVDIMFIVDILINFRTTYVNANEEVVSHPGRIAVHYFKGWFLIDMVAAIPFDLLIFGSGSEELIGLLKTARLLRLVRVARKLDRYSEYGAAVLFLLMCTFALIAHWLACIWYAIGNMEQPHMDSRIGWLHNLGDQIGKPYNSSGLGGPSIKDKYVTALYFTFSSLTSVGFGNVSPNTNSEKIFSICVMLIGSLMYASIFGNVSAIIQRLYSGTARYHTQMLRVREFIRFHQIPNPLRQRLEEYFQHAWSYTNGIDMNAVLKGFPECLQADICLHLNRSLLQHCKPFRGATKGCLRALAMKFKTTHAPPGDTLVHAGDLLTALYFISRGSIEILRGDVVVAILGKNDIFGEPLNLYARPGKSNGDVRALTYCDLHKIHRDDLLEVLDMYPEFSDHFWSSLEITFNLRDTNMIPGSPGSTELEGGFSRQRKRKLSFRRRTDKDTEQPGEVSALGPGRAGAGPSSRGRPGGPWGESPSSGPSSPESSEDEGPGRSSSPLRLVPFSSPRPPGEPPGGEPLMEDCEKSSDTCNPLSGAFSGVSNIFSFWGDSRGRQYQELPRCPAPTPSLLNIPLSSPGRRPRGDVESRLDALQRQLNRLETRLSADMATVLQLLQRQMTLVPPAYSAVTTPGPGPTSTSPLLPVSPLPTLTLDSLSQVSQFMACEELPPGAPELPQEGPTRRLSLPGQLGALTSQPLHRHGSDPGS

Structure (SMILES)	hERG current change (%, negative = inhibition) at 10uM
CC1CCC(NC(=O)C2COc3ccccc3O2)CC1 (centres unmarked)	9.33%
COc1ccc(-c2nn(C)c(=O)c3ccccc23)cc1CNC(=O)c1ccco1	-33.9%
Cc1nnc(NC(=O)C2CCCN(S(=O)(=O)Cc3ccccc3)C2)s1 (centres unmarked)	-2.64%
CCN1CCN(Cc2cc(C(C)(C)C)c(O)c(C(C)(C)C)c2)CC1	-26.5%
O=S(=O)(NCc1ccc2c(c1)OCO2)c1cccc(F)c1	-6.14%
Cc1ccc(S(=O)(=O)N2CCCN(C)c3nc4ccccc4nc32)cc1	-5.12%
Cc1ccccc1NC(=O)CCN1C(=O)CSC1=O	6.58%
O=C(NCc1ccccc1)C1CCCN(C(=O)NCc2ccccc2)C1 (centres unmarked)	0.717%
Cc1cc(OCc2nn[nH]n2)c2c3c(c(=O)oc2c1)CCC3	3.12%
O=C(CCC(=O)OCCCC(F)(F)C(F)(F)F)Nc1ccc(Cl)cc1Cl	4.85%
Cc1nonc1NC(=O)CSc1ccccn1	6.15%
Cc1cc(Cl)cc(C)c1OCC(=O)O	18.8%
COc1ccccc1C(=O)N/N=C(\C)c1ccc(NC(=O)C2CC2)cc1	-3.62%
Cc1ccc(-c2nc(CS(=O)CC(=O)NCc3ccc4c(c3)OCO4)c(C)o2)cc1 (centres unmarked)	-33.1%
CCOC(=O)N1CCN(Cc2nc3cc(NC(C)=O)ccc3n2CC)CC1	14.9%
CN(C)c1ccc(NC(=O)c2ccc(Cn3cc([N+](=O)[O-])cn3)cc2)cc1	-23%
O=C(NCc1nnc(SCC(=O)N2CCOCC2)o1)c1cccs1	0.145%
CCCCOc1ccc(-c2cnc3ccccc3n2)cc1	8.79%
Nc1c(NC(=O)CC[n+]2ccccc2)cccc1[N+](=O)[O-].[Cl-]	-0.613%
O=C(Nc1nnc(C2CC2)s1)c1cccnc1Oc1ccc(Cl)cc1	12%

Structure (SMILES)	hERG current change (%, negative = inhibition) at 10uM
O=C1C(=O)N(CCS(=O)(=O)c2ccccc2)c2ccc(F)cc21	8.67%
Cc1cc(OC(C)C(=O)N2CCN(c3ccc(F)cc3)CC2)c2c(C)c(C)c(=O)oc2c1 (centres unmarked)	-29.1%
COc1ccccc1C(=O)OCC(=O)Nc1cc(S(=O)(=O)N2CCOCC2)ccc1N1CCCC1	-7.82%
CCN(CC(=O)Nc1ccccc1OC)CC(=O)Nc1ccccc1C(F)(F)F	-5.29%
CCOCCCNC(=S)N1CCN(CC)CC1.O=C(O)C(=O)O	15.3%
CCOCCOc1cccc(C(=O)NC(c2ccccc2)C(C)C)c1 (centres unmarked)	-3.6%
Fc1ccc(CN2CCSCC2)cc1Br	-11.1%
Fc1ccc(NC(=S)Nc2ccc(Cl)cc2Cl)cc1	15.3%
COc1ccc(C2CC(c3ccccc3)=NN2C(=O)CN2CCN(Cc3ccccc3)CC2)cc1 (centres unmarked)	-31.2%
CCN(CC)S(=O)(=O)c1ccc(-n2c(=O)c(C(C)C)c(C)n2C)cc1	-3.98%
Cc1onc(-c2ccccc2Cl)c1C(=O)N1CCC(Cc2ccccc2)CC1	13.8%
CCN(CC(=O)NC1CC1)S(=O)(=O)c1ccccc1	10%
Cc1ccc(S(=O)(=O)NCCC(c2ccccc2)c2ccco2)cc1 (centres unmarked)	0.23%
Cc1cccc(N2CCN(C(=O)/C=C/c3cccs3)CC2C)c1 (centres unmarked)	-36.3%
O=C(O)C(=O)O.c1ccc(COc2cccc(CN3CCCCC3)c2)cc1	-19.2%
CCN(CC)c1ccc(C(=O)NNC(=O)C2CSC3(C)CCC(=O)N23)cc1 (centres unmarked)	-4.88%
CCC(=O)N1N=C(c2cccs2)CC1c1ccco1 (centres unmarked)	4.53%
CN1CCC(N(C)C(=O)/C(C#N)=C/c2ccccc2)CC1.Cl	15.4%
O=C(NCCN1CCOCC1)C1CC(=O)N(c2ccc(Cl)cc2)C1 (centres unmarked)	9.18%
S=C(NC12CC3CC(CC(C3)C1)C2)N1CCCC1	9.45%

Structure (SMILES)	hERG current change (%, negative = inhibition) at 10uM
CCCOc1ccc(-c2nc(-c3ccc(N)cc3)cs2)cc1	8.53%
CN(CCOc1ccccc1)C(=O)c1ccc(N2CCCC2)c([N+](=O)[O-])c1	-27.5%
C=CCc1cc(C=O)cc(OCC)c1O	14%
O=C(Nc1nccs1)c1ccc(S(=O)(=O)NCC2CCCCC2)cc1	-6.69%
CC(Oc1ccc(F)cc1)C(=O)Nc1ccccc1C(=O)N1CCCCC1 (centres unmarked)	-15.1%
Cc1ccc(N2C(=O)CC(=O)NC2=O)cc1Cl	13.9%
C=CCOc1c(Cl)cc(C(=S)N2CCCC2)cc1OCC	18.6%
Cc1ccc(NC(=O)CCNS(=O)(=O)c2ccc3[nH]c(=O)oc3c2)c(C)c1	14.8%
COc1ccc(C2C(C(C)=O)=C(O)C(=O)N2CCc2ccccc2)c(OC)c1 (centres unmarked)	6.42%
N#CCC(=O)Nc1cc(C(F)(F)F)ccc1N1CCOCC1	6.02%
CCC(C(=O)O/N=C(\N)c1ccc(C)cc1)c1ccccc1 (centres unmarked)	-0.704%
COC(=O)CC1C(=O)NCCN1Cc1cn(-c2ccc(C)cc2)nc1-c1cccc(C)c1 (centres unmarked)	-9.55%
COc1ccc(-c2c(C)n([O-])c3c([n+]2=O)CCCCC3)cc1OC	14%
O=C1NCCCCC1NS(=O)(=O)c1ccc(F)c(F)c1 (centres unmarked)	4.76%
CCOC(=O)N1CCN(S(=O)(=O)c2ccc(C)c([N+](=O)[O-])c2)CC1	-13.4%
Cc1nn2c(Nc3ccccc3)c3c(nc2c1-c1ccccc1)CCC3	14.1%
O=C(NC(=S)Nc1nc(-c2ccc(Br)cc2)cs1)c1ccco1	21.8%
CCOC(=O)c1c(C)oc2ccc(OCC(=O)C(C)(C)C)cc12	12.2%
CCOc1ccc(C(=O)Nc2cccc3ncccc23)cc1Br	17.4%
